# Results are given in words; binding and its absence hold for the method and conditions named. In cells and extracts the contact can be indirect. Some entries that bind do so weakly or less than the wild type. Where a sequence is shown, tags or fusion partners need not be part of it.
# T1: SF-IL-17RC (murine IL-17RC with C-terminal 2xStrep-3xFlag tag), in ST2 cells (mouse) (UniProt Q8K4C2)
# T1 sequence (chain, N-glycosylated (100 kDa and 150 kDa forms)): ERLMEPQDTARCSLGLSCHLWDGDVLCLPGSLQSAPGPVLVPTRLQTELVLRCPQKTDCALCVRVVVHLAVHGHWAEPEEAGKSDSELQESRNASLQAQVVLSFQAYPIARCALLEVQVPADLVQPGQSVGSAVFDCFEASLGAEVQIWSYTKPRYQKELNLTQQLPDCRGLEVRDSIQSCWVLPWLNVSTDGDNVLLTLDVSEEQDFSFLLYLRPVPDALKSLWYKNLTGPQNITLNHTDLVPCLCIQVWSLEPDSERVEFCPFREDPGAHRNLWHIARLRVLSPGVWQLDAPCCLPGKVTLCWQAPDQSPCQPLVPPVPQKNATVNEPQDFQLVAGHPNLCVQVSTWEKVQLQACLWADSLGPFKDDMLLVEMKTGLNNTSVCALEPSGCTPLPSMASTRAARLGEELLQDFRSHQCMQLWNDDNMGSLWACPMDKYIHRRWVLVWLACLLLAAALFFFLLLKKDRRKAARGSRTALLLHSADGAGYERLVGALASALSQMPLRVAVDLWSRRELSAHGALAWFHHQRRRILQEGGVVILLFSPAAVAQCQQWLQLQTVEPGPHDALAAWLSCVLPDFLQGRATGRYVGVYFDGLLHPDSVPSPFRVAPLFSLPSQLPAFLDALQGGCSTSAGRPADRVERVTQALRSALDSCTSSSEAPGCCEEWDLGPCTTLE
# T2: Strep-Flag-tagged mouse IL-17A (mouse) (UniProt Q62386)
# T2 sequence: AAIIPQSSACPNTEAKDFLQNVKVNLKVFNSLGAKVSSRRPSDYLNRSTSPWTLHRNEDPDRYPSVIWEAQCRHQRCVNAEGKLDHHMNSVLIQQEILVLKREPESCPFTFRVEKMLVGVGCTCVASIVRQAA
# Target: T1, SF-IL-17RC (murine IL-17RC with C-terminal 2xStrep-3xFlag tag), in ST2 cells (mouse)
# Assay: co-IP; Flag IP from lysates of Cmtm4−/− ST2 cells transduced with Myc-tagged members of the CMTM family (CMTM1–8) together with SF-IL-17RC, immunoblot
row,binding,Binder
1,no binding,"Myc-tagged CMTM5 (protein, UniProt Q9D6G9 1-156) MFSAWDRRERPPEEGAAAGLQGFGVDKTFLSSLKGILLETELALTFIIFICFTASISAYMAAALLEFLITLAFLFLCATQYYQRFDRLNWPCLDFLRCLSAIVIFLVVSFAAVTSREGAAIAAFVFGIILVSVFAYDAFKIYRTELMPSTTEGDQQ"
2,no binding,"Myc-tagged CMTM1 (protein, UniProt F6U6C2 1-303) MNPASARRESGGDGSRRESRRLTLRPRVLDASSPSDSQAYAASAPPHQGPSVPGTPASQGPSVPGTPASQGPSVPGTPASQGPSVPGTPASQGPSVPGTPSRQQSFIRATPIRQQSFIRAIPSRQRPSVQAIPSSQRPLVHVIPSSQRPSVRATPSSQRPSVRATPSSQRPSCITATSVFCFVIGGAQELFVVIMIQETCIVLFFIIIYLVTLQTTMACIHWPLLDLINSAISTVFLGIVGIVVIGKKNTKDLCYAGGILCLSAAVLCVIDALLFTEKRRNKAKSSLARETKLSATQLRQKQH"
3,no binding,"Myc-tagged CMTM3 (protein, UniProt Q99LJ5 1-184) MWPPDAEPEPDPESAHGPRSGRTVPGLRALLPARAFLCSLKGRLLLAESGLSFITFICYVVSSASAFLTVPLLEFLLAVYFLFADAMQLNDKWQGLCWPMMDFLRCVTAALIYFVISITAVAKYSDGAYKAAGVFGFFATIVFAIDFYLIFNEVAKFLKQGDSGNETTAHRTEEENSNSDSDSD"
4,no binding,"Myc-tagged CMTM6 (protein, UniProt Q9CZ69 1-183) MENGAVYSPTTEAAPGTGRGARSGLAAYFVLGRLPWHRRILKGLQLLLSLLAFICEEVVSECGLCGGLYFFEFVSCSAFLLSLLLLIVYCTPVHDRVDTGKVKSSDFYITLGTGCVFLLASIIFVSTHSGTSAEIAAIVFGFLASSMFLLDFVVMLCEKLRESPLRKPENNAKVEALTEPLNA"
5,no binding,"Myc-tagged CMTM7 (protein, UniProt Q9ESD6 1-167) MSHGSGLVRTTCSSGGALGPGQPSEGLLDRVYPLTHGALFKVAQMVTLLIAFICVRSSVPIDYGAHSFFEVVTMCDLIMILIFYLVHLFRFYRVLTCISWPLSELLHYLIGTLLLLIASIVIASKSYNQSGLVAGAIFGFLASFLCLASLWLSYKITCITQSSDASA"
6,no binding,"Myc-tagged CMTM8 (protein, UniProt Q9CZR4 1-173) MEEQQRARSHTVTTTTSSFAENFSTTSSSFAYDREFLRTPPGLLIVAEIVLGLLVWTLIAGTEYFRVPAFGWVMFVAVFYWVLTVFFLIVYITLTYTRIPQVPWTTVGLCFNGSAFVLYFSAAIVDASSVSPEKEGHNFNSWAASSFFAFLVTICYAGNTYFSFIAWRSRTAQ"

# Target: T2, Strep-Flag-tagged mouse IL-17A (mouse)
# Assay: co-IP; ST2 cells (wild-type; Cmtm4−/− beside them) stimulated with SF-IL-17A (500 ng/ml, 15 min) or left unstimulated with SF-IL-17A added post lysis; anti-FLAG M2 agarose IP from 1% DDM lysates, immunoblot; only the target purified
row,binding,Binder
1,binds,"TRAF6 (endogenous, mouse ST2 cells) (enzyme, UniProt P70196 1-530) MSLLNCENSCGSSQSSSDCCAAMAASCSAAVKDDSVSGSASTGNLSSSFMEEIQGYDVEFDPPLESKYECPICLMALREAVQTPCGHRFCKACIIKSIRDAGHKCPVDNEILLENQLFPDNFAKREILSLTVKCPNKGCLQKMELRHLEDHQVHCEFALVNCPQCQRPFQKCQVNTHIIEDCPRRQVSCVNCAVSMAYEEKEIHDQSCPLANIICEYCGTILIREQMPNHYDLDCPTAPIPCTFSVFGCHEKMQRNHLARHLQENTQLHMRLLAQAVHNVNLALRPCDAASPSRGCRPEDPNYEETIKQLESRLVRQDHQIRELTAKMETQSMYVGELKRTIRTLEDKVAEMEAQQCNGIYIWKIGNFGMHLKSQEEERPVVIHSPGFYTGRPGYKLCMRLHLQLPTAQRCANYISLFVHTMQGEYDSHLPWPFQGTIRLTILDQSEALIRQNHEEVMDAKPELLAFQRPTIPRNPKGFGYVTFMHLEALRQGTFIKDDTLLVRCEVSTRFDMGGLRKEGFQPRSTDAGV"
2,binds,"ACT1 (endogenous, mouse ST2 cells) (protein, UniProt Q8N7N6 1-555) MNRSIPVEVDESEPFPSQLLKPIPEYSPEEELEPPAPNTRNMAPSSLSVLQCPPLKLANHQPVSQQVTCLRAKVLEEGEASFFRRHPELGKDISSCSSGASEPESELGALPPEHRFTLTEKRNRWLGSQLSAASPDTGHESDKSDPSLPNALADSFSGGQEMMPRPRPRPGPHRHRAAPDVPTIDTGYDSQPQDVLGIRQLERPLPLTSSCYLQDLPGPLRSRELPPQFELERYPMNAQLLPPHPSPQAPWNCQYYCPGGPYHHQVPHGHGYPPAAAYQQVLQPALPGQVLPGARARGPRPVQKVILNDSSPQDQEERPAQRDFSFPRLPRDQLYRPPSNGVEAPEESLDLPAELRPHGPQAPSLAAVPRPPSNPLARGTLRTSNLPEELRKVFITYSMDTAMEVVKFVNFLLVNGFQTAIDIFEDRIRGIDIIKWMERYLRDKTVMIIVAISPKYKQDVEGAESQLDEDEHGLHTKYIHRMMQIEFISQGSMNFRFIPVLFPNAKKEHVPTWLQNTHVYSWPKNKKNILLRLLREEEYVAPPRGPLPTLQVVPL"

# Target: T1, SF-IL-17RC (murine IL-17RC with C-terminal 2xStrep-3xFlag tag), in ST2 cells (mouse)
# Assay: co-IP; Flag IP from lysates of ST2 cells retrovirally transduced with SF-IL-17RC together with Myc-tagged CMTM4, CMTM6 or chimeric proteins, immunoblot
row,binding,Binder
1,binds,"Myc-CMTM4^4-Tm6 (CMTM4 with its fourth transmembrane domain replaced by that of CMTM6) (protein, UniProt Q8CJ61 1-147; Q9CZ69 132-183) MRGGEELDGFEGEASSTSMISGASSPYQPTTEPVSQRRGLAGLRCDPDYLRGALGRLKVAQVILALIAFICIETIMECSPCEGLYFFEFVSCSAFVVTGVLLILFSLNLHMRIPQINWNLTDLVNTGLSTFFFFIASIVLAALNHKTSAEIAAIVFGFLASSMFLLDFVVMLCEKLRESPLRKPENNAKVEALTEPLNA"
2,no binding,"Myc-CMTM4^1-Tm6 (CMTM4 with its first transmembrane domain replaced by that of CMTM6) (protein, UniProt Q9CZ69 1-67; Q8CJ61 84-208) MENGAVYSPTTEAAPGTGRGARSGLAAYFVLGRLPWHRRILKGLQLLLSLLAFICEEVVSECGLCGGLYFFEFVSCSAFVVTGVLLILFSLNLHMRIPQINWNLTDLVNTGLSTFFFFIASIVLAALNHKTGAEIAAVIFGFLATAAYAVSTFLAMQKWRVSVRQQSTNDYIRARTESRDVDSRPEIQRLDT"
3,no binding,"Myc-tagged CMTM6 (protein, UniProt Q9CZ69 1-183) MENGAVYSPTTEAAPGTGRGARSGLAAYFVLGRLPWHRRILKGLQLLLSLLAFICEEVVSECGLCGGLYFFEFVSCSAFLLSLLLLIVYCTPVHDRVDTGKVKSSDFYITLGTGCVFLLASIIFVSTHSGTSAEIAAIVFGFLASSMFLLDFVVMLCEKLRESPLRKPENNAKVEALTEPLNA"
4,no binding,"Myc-CMTM4^2-Tm6 (CMTM4 with its second transmembrane domain replaced by that of CMTM6) (protein, UniProt Q8CJ61 1-83; Q9CZ69 68-94; Q8CJ61 111-208) MRGGEELDGFEGEASSTSMISGASSPYQPTTEPVSQRRGLAGLRCDPDYLRGALGRLKVAQVILALIAFICIETIMECSPCEGLYFFEFVSCSAFLLSLLLLIVYCTPVHMRIPQINWNLTDLVNTGLSTFFFFIASIVLAALNHKTGAEIAAVIFGFLATAAYAVSTFLAMQKWRVSVRQQSTNDYIRARTESRDVDSRPEIQRLDT"
5,binds,"Myc-CMTM4^3-Tm6 (CMTM4 with its third transmembrane domain replaced by that of CMTM6) (protein, UniProt Q8CJ61 1-110; Q9CZ69 95-131; Q8CJ61 148-208) MRGGEELDGFEGEASSTSMISGASSPYQPTTEPVSQRRGLAGLRCDPDYLRGALGRLKVAQVILALIAFICIETIMECSPCEGLYFFEFVSCSAFVVTGVLLILFSLNLHDRVDTGKVKSSDFYITLGTGCVFLLASIIFVSTHSGTGAEIAAVIFGFLATAAYAVSTFLAMQKWRVSVRQQSTNDYIRARTESRDVDSRPEIQRLDT"

# — publication PMC9663306
